The source of these data is PMC6664820, “Novel natural and synthetic inhibitors of solute carriers SGLT1 and SGLT2” (Pharmacology Research & Perspectives, 2019).

The structures appear in SMILES notation. Among all 1,900 compounds or so, about 40 (2%) showed an effect of 50% or more. The list shows a part of the results.

human SGLT1 (hSGLT1), sequence (P13866 whole entry, looked up): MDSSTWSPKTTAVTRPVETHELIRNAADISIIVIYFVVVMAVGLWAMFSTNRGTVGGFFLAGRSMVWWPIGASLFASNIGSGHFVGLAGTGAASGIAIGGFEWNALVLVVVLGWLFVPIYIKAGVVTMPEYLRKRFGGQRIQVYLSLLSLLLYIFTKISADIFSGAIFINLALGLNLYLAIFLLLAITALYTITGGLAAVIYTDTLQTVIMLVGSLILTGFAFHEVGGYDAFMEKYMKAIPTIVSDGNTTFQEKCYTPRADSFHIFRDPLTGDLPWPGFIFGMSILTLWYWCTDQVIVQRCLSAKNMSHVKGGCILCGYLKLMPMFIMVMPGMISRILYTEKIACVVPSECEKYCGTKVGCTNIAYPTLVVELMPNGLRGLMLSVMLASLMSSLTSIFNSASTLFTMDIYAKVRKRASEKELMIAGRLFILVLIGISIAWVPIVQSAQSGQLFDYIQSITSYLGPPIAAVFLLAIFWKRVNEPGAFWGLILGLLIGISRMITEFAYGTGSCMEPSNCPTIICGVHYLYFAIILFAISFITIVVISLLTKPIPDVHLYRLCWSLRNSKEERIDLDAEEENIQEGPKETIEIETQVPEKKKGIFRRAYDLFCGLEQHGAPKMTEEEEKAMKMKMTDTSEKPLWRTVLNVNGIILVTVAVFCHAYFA

The assay concerns the target human SGLT1 (hSGLT1) (human, UniProt P13866). The assay can be described thus: primary screen, percent of control activity; higher = less effect of the substance. More on the design: single well. The settings on record: 50 µM. How it is done: Two days before the assay, CHO‐wild type and CHO‐hSGLT1 cells were seeded in maintenance medium at 25 000 cells/well in clear‐bottom black 96‐well cell culture plates. Before the assay, cells were washed 3 times with 150 μL/well D‐glucose free DMEM with 0.3% (w/v) BSA. Library compounds at 50 μmol/L (singlicate) prepared in D‐glucose free DMEM with 160 μmol/L 1‐NBD‐glucose and 0.3% (w/v) BSA and negative controls (triplicate) were added at 100 μL/well and placed in a humidified incubator at 37°C with 5% CO2 for 90 minutes. Next, cells were washed 3 times with DMEM with 0.3% (w/v) BSA (150 μL/well). Care was taken to remove all medium after the last wash. Finally, 1‐NBD‐glucose was extracted from the cells by adding 10 μL/well isopropanol and orbital shaking for 5 minutes at 600 rpm, followed by incubation in the dark for 30 minutes. Fluorescence was measured on a Tecan Infinite M200 Microplate Reader (Tecan, Männedorf, Switzerland) with excitation at 445 nm and emission at 525 nm. The amount of 1‐NBD‐glucose taken up by the CHO‐wild type or CHO‐hSGLT1 cells in the presence or absence of test compounds was interpolated from 1‐NBD‐glucose calibration standards. The background uptake by CHO‐wild type was subtracted from the uptake by CHO‐hSGLT1. Background corrected uptake with test compound was expressed as a percentage of corrected uptake without test compound.
`CSC(=N)NCCC[C@@H](N)C(=O)O`: the “NORMALIZED SGLT1 ACTIVITY (%)” value is listed as 102%.

Consider `C[C@@]12C(=O)OC(=O)[C@]1(C)[C@H]1CC[C@@H]2O1`, for which the “NORMALIZED SGLT1 ACTIVITY (%)” value was found to be 112%.

Consider `C#C[C@]1(O)CCC2C3CCC4=C(CCC(=O)C4)C3CC[C@@]21C` (stereo partly shown), for which the “NORMALIZED SGLT1 ACTIVITY (%)” value turned out to be 203%.

In the case of `CO[C@@]1(NC(=O)CSCC#N)C(=O)N2C(C(=O)O)=C(CSc3nnnn3C)CS[C@@H]21`, the “NORMALIZED SGLT1 ACTIVITY (%)” value turned out to be 89%.

In the case of `C[C@@H]1[C@H](O)[C@@H](C)/C=C/C=C/C=C/C=C/C=C/C=C/C=C/[C@H](O[C@@H]2O[C@H](C)[C@@H](O)[C@H](N)[C@@H]2O)C[C@@H]2O[C@](O)(C[C@@H](O)C[C@@H](O)[C@H](O)CC[C@@H](O)C[C@@H](O)CC(=O)O[C@H]1C)C[C@H](O)[C@H]2C(=O)O`, the “NORMALIZED SGLT1 ACTIVITY (%)” value was found to be 93%.

Take `O=S1OCC2C(CO1)C1(Cl)C(Cl)=C(Cl)C2(Cl)C1(Cl)Cl` (stereo not shown): the “NORMALIZED SGLT1 ACTIVITY (%)” value was found to be 101%.

Regarding `CCOC(=O)C(C)(C)Oc1ccc(Cl)cc1`, the “NORMALIZED SGLT1 ACTIVITY (%)” value was determined as 84%.

As for `CCC(Cc1c(I)cc(I)c(N)c1I)C(=O)O` (stereo not shown), the “NORMALIZED SGLT1 ACTIVITY (%)” value is reported as 209%.

Take `O=C(O)/C=C(\CC(=O)O)C(=O)O`: the “NORMALIZED SGLT1 ACTIVITY (%)” value worked out at 98%.

On to `C[C@]12CC[C@@H]3c4ccc(O)cc4CC[C@H]3[C@@H]1CC[C@@H]2OC(=O)CCC1CCCC1`, for which the “NORMALIZED SGLT1 ACTIVITY (%)” value amounted to 122%.

Take `O=C(CCCN1CCN(c2ccccn2)CC1)c1ccc(F)cc1`: the “NORMALIZED SGLT1 ACTIVITY (%)” value is 111%.

On to `C[C@@H]1OC(O[C@H]2[C@H](O)[C@@H](O)[C@H](OC[C@H]3O[C@@H](OC(=O)[C@]45CCC(C)(C)CC4C4=CCC6[C@@]7(C)CC[C@H](OC8OC[C@H](O)[C@H](O)[C@H]8OC8O[C@@H](C)[C@H](O)[C@@H](O)[C@H]8O)[C@@](C)(CO)C7CC[C@@]6(C)[C@]4(C)CC5)[C@H](O)[C@@H](O)[C@@H]3O)O[C@@H]2CO)[C@H](O)[C@H](O)[C@H]1O` (stereo partly shown), for which the “NORMALIZED SGLT1 ACTIVITY (%)” value was 112%.

Turning to `Cc1ccc(C(=O)c2ccc(CC(=O)[O-])n2C)cc1.[Na+]`, the “NORMALIZED SGLT1 ACTIVITY (%)” value came to 115%.

Consider `CC(=O)O[C@@](C)(CCC=C(C)C)C1CC=C(C)CC1` (stereo partly shown), for which the “NORMALIZED SGLT1 ACTIVITY (%)” value stood at 112%.

As to `CN1CC(=O)NC1=N`, the “NORMALIZED SGLT1 ACTIVITY (%)” value was 105%.

For `CCNC(=O)CC[C@H](N)C(=O)O`, the “NORMALIZED SGLT1 ACTIVITY (%)” value turned out to be 97%.

As for `CC(C)=CCc1c2c(c3occ(-c4ccc(O)cc4)c(=O)c3c1O)C=CC(C)(C)O2`, the “NORMALIZED SGLT1 ACTIVITY (%)” value is on record as 125%.

As for `O=C(C1CCCCC1)N1CC(=O)N2CCc3ccccc3C2C1` (stereo not shown), the “NORMALIZED SGLT1 ACTIVITY (%)” value is 154%.

For the molecule `CCC(CCC(C)[C@H]1CCC2C3CC=C4C[C@@H](OC(C)=O)CC[C@]4(C)C3CC[C@@]21C)C(C)C` (stereo partly shown), the “NORMALIZED SGLT1 ACTIVITY (%)” value is 110%.

For `Cc1cc(=O)oc2cc(O)c(O)cc12`, the “NORMALIZED SGLT1 ACTIVITY (%)” value was found to be 146%.

On to `CC(C)Cn1c(=O)n(C)c(=O)c2[nH]cnc21`, for which the “NORMALIZED SGLT1 ACTIVITY (%)” value came out at 143%.

With `CNC(=O)O/N=C(/C)SC`, the “NORMALIZED SGLT1 ACTIVITY (%)” value is listed as 76%.
